Consider one molecule from US20200131584A1 (CHINESE UNIVERSITY OF HONG KONG, published 2020).

The test deals with T1, JAK2 (UniProt O60674 1-1132).
T1 construct: Detected and immunoprecipitated with the anti-JAK2 antibody (Cell Signaling #9945S); also called endogenous JAK2
Nature of the test: co-IP in cells expressing DLEC1-3Y vs wild-type DLEC1.

B1: STAT3 (other)
chain: not shown
notes: Detected and immunoprecipitated with the anti-STAT3 antibody (Cell Signaling #9139S); also called total STAT3
Regarding B1, the binding result is recorded as “binds”.
